Drawing on PubChem BioAssay AID463173 (ICCB-Longwood Screening Facility, Harvard Medical School, 2010), this text covers survival for 56 compounds.

SMILES strings stand for the structures. The whole screen tested about 52,000 compounds, of which about 1,700 (3.3%) were called active. No stated cut-off is given here; in the data, active means survival mostly below about 52% (no sharp cut-off); inactive means mostly above about 56%. Some of the results follow.

This test concerns Wild type. Put plainly: growth inhibition of S. aureus wild type versus tarO mutant, primary screen, teichoic acid synthesis inhibitors, RN4220, OD600 (AID 463173). The note with it: S. aureus RN4220 wild type/DeltatarO growth, OD600, 18 h, active compounds read low, screened at 18.75 µg/mL (by protocol).
Take `Cc1cccc(-c2nn3c(=O)cc(CN4CCN(S(=O)(=O)c5ccc(Cl)cc5)CC4)nc3s2)c1`: the survival is inactive: 74%.

`Cc1ccc(C)c(NC(=O)c2ccc3c(c2)CCN3S(C)(=O)=O)c1`: the survival is inactive: 114%.

For the compound `COc1ccccc1C(=O)OCc1cc(=O)n2nc(C3CC3)sc2n1`, the survival is inactive: 99%.

For `CCC1CCc2nc3sc(C(=O)Nc4ccc(F)c(Cl)c4)c(N)c3cc2C1` (stereo unspecified), the survival is inactive: 88%.

Take `COc1ccc2nc(-c3ccc(N)cc3)[nH]c2c1`: the survival is inactive: 99%.

`COc1ccccc1CNC(=O)CSc1ncc2c(n1)-c1ccc(Cl)cc1N(Cc1ccccc1)S2(=O)=O`: the survival is active: 0%.

For `COc1ccc(NC(=O)C(c2ccc(C)cc2)N(C)C(=O)Cc2cccs2)cc1` (stereo unspecified), the survival was inactive: 85%.

`COc1ccccc1Nc1nc(Nc2cccc(C(F)(F)F)c2)nc(N2CCOCC2)n1`: the survival was inactive: 127%.

Regarding `CC(C)(C)c1ccc(OCCn2ccccc2=O)cc1`, the survival was inactive: 103%.

With `Cc1c(Cl)cccc1NC(=O)C(C)n1c(=O)cc(-c2ccccc2)c2c(C)nn(C)c21` (stereo unspecified), the survival was inactive: 91%.

Consider `CCc1ccc(NC(=O)c2sc3nc(C)c(Cl)c(C)c3c2N)cc1`, for which the survival was inactive: 103%.

For `O=C(Cn1c(-c2cccs2)cc2cc(Cl)ccc21)N1CCN(c2ccccc2)CC1`, the survival was inactive: 80%.

Regarding `Cc1cccc(N(CC(=O)O)S(C)(=O)=O)c1`, the survival is inactive: 100%.

`O=C(Cn1c(=O)c2cc(Cl)ccc2n2nncc12)Nc1ccccc1`: the survival was inactive: 68%.

As for `Cc1ccc(NC(=O)C2CCCN2S(=O)(=O)c2ccc3c(c2)CCCC(=O)N3)cc1C` (stereo unspecified), the survival was inactive: 66%.

For the compound `COc1ccc(-c2cccc(NS(=O)(=O)c3cc(C)c(OC)c(C)c3C)c2)nn1`, the survival was inactive: 72%.

On to `CCOc1ccccc1C(=O)N1CC(=O)Nc2ccc(Cl)cc2C1c1ccccc1` (stereo unspecified), for which the survival was inactive: 94%.

As to `Cc1nnc(NC(=O)C2CCCN(c3ncccn3)C2)s1` (stereo unspecified), the survival was inactive: 103%.

On to `C=CCC(CC=C)(CNC(=O)C(=O)Nc1cccc(C(F)(F)F)c1)c1ccccc1`, for which the survival is inactive: 120%.

In the case of `O=C(CC(c1cccs1)N1Cc2ccccc2C1=O)Nc1ccc(F)c(Cl)c1` (stereo unspecified), the survival is inactive: 77%.

As to `CC(=O)Nc1cc(C(=O)NCc2ccc(C)cc2)ccc1Sc1ccc(C)cc1`, the survival is inactive: 72%.

As for `COc1ccc(Cl)cc1NC(=O)CN(C)S(=O)(=O)c1ccc2c(c1)CCCN2C(C)=O`, the survival was inactive: 80%.

In the case of `CC(CNC(=O)Cn1ccc2cc(S(=O)(=O)N3CCCCCC3)ccc21)c1ccccc1` (stereo unspecified), the survival was inactive: 120%.

With `CCOC(=O)c1ccc(N2CCN(c3cccc(Cl)c3)CC2)c(NC(=O)Nc2ccc(OC)cc2OC)c1`, the survival was inactive: 90%.

Regarding `CCc1ccc(-c2nc(CN3CCCC(C(=O)N4CCN(c5cc(Cl)ccc5C)CC4)C3)c(C)o2)cc1` (stereo unspecified), the survival is inactive: 84%.

As for `CCOC(=O)CSc1nc2ccccc2c(=O)n1CCc1ccc(OC)c(OC)c1`, the survival was inactive: 124%.

As for `CC(=O)NC(NC(C)=O)c1ccc2c(c1)OCO2`, the survival was inactive: 96%.

As to `CCC1CN(C(=O)N2CCC(C(=O)NCCN(CC)CC)CC2)c2ccccc2O1` (stereo unspecified), the survival is inactive: 88%.

As to `COc1ccc(-c2onc(C)c2C)cc1S(=O)(=O)NCC1CCN(Cc2ccccc2F)CC1`, the survival was inactive: 70%.

Turning to `Cc1cccc(-n2c(=O)c3c(c4cc(C)ccc4n3C)n(CC(=O)NCCC3=CCCCC3)c2=O)c1`, the survival is inactive: 80%.

As for `COc1ccc(-c2noc(-c3cccnc3NCc3ccco3)n2)cc1`, the survival was inactive: 128%.

As for `CCc1cccc(C)c1NC(=O)CSc1nc(C)cc(C)c1C(=O)Nc1ccccc1`, the survival is inactive: 77%.

With `CC(=O)NC1=NN(C(C)=O)C2(S1)C(=O)Nc1ccccc12` (stereo unspecified), the survival was inactive: 96%.

Regarding `Cc1ccc(Oc2c(C(F)(F)F)oc3cc(OCC(=O)NC4CCCCC4)ccc3c2=O)cc1`, the survival was inactive: 63%.

With `Cc1onc(-c2ccc(F)cc2F)c1C(=O)Nc1cccc(C(F)(F)F)c1`, the survival is inactive: 89%.

As to `O=C(Cn1cc(/C=C2\C(=O)NC(=O)N(Cc3ccccc3)C2=O)c2ccccc21)NCc1ccco1`, the survival was inactive: 98%.

Consider `CC(C)Sc1ncc(Cl)c(C(=O)Nc2nnc(C(C)C)s2)n1`, for which the survival was inactive: 82%.

Turning to `CCc1ccc(NC(=O)Cn2c(=O)oc3cc(S(=O)(=O)N4CCCCCC4)ccc32)cc1`, the survival is inactive: 82%.

For `CN(C(=O)C(=O)Nc1ccc2nc3n(c(=O)c2c1)CCCCC3)c1cccc(C(F)(F)F)c1`, the survival is inactive: 72%.

Regarding `CCc1ccc(CNC(=O)c2cc(-c3ccc(Br)s3)nc3ccccc23)cc1`, the survival was inactive: 80%.

Turning to `COc1cc(-c2nc3ccc(Cl)cn3c2NC(C)(C)C)ccc1O`, the survival is inactive: 105%.

On to `COc1ccc(OC)c(-c2cc(C(=O)NC(C)c3ccccc3)no2)c1` (stereo unspecified), for which the survival is active: -12%.

Turning to `COc1cccc(-c2ccc3c(N)c(C(=O)NCc4ccc(Cl)cc4)sc3n2)c1`, the survival was inactive: 65%.

Regarding `CCCOc1ccc(C2C(=O)N(C3CCC(C)CC3)CC(=O)N2CCC2=CCCCC2)cc1OC` (stereo unspecified), the survival was inactive: 87%.

On to `Cc1cccc(N2CCN(C3(c4ccccc4)C(=O)c4ccccc4C3=O)CC2)c1C`, for which the survival is inactive: 71%.

As to `O=S(=O)(Nc1ccc2nc(-c3cccc(Cl)c3)oc2c1)c1ccccc1`, the survival was inactive: 75%.

Take `Cc1ccc2onc(CC(=O)N(C)c3ccccc3)c2c1`: the survival was inactive: 79%.

`COc1ccc(CCNC(=O)c2c(C)nn(-c3ccc(F)cc3)c2-n2cccc2)cc1OC`: the survival is inactive: 71%.

Turning to `Cc1ccc(S(=O)(=O)N2CCOCC2)cc1C(=O)Nc1ccccc1C(=O)O`, the survival is inactive: 67%.

For the compound `O=S(=O)(Nc1nc2n(n1)C(c1ccc(F)cc1)C=C(c1ccccc1)N2)c1ccc(Cl)cc1` (stereo unspecified), the survival is active: 14%.

For the compound `O=C(CCc1nc2cccnc2n1Cc1cccs1)Nc1cccc(Cl)c1`, the survival was inactive: 70%.

Turning to `COc1ccccc1CNC(=O)c1ccc2nc(-c3ccccc3)c(-c3ccccc3)nc2c1`, the survival is inactive: 70%.

Take `CCOc1ccc(CNC(=O)c2ccc(NC(=O)N3CCCCc4ccccc43)cc2)cc1OC`: the survival was inactive: 45%.

In the case of `CCn1cc(C(=O)NCc2ccc(C)cc2)c(=O)c2cc(S(=O)(=O)N3CCCCCC3)ccc21`, the survival was inactive: 72%.

As for `CC(C)CNc1nc(Oc2ccc(OCC(N)=O)nn2)nc(N2CCOCC2)n1`, the survival is inactive: 84%.

In the case of `c1ccc(-c2nonc2NCNc2nonc2-c2ccccc2)cc1`, the survival was inactive: 89%.
